Assay results reported in the supplement of paper PMC10185492.
Some of the results follow. Values come from read counts of a selection and are noisy.

The substances below were run on SARS-CoV-2 3CLpro (nsp5) (assay: substrate phage enrichment score (protease-eluted vs HEPES control, +1 offset) (ratio); higher = better cleaved substrate). Details: selection round: 4; protease elution time: 15 min.
Description: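 Random heptapeptide substrate phage display (M13 pIII fusion, heptapeptide between an N-terminal biotinylated AviTag GLNDIFEAQKIEWHE and pIII; phages immobilised on streptavidin) eluted by cleavage with 50 nM protease in 20 mM HEPES at 37 °C. Selected phages were NGS sequenced, and the enrichment score is (reads in protease sample + 1)/(reads in HEPES blank-selection control + 1).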

| Substance | substrate phage enrichment score |
| --- | --- |
| ERDGKAP | > 35 |
| LENPQGA | 0.933 |
| WGAAAHH | 0.143 |
| PTYRDRT | > 48 |
| IDAAHHH | 0.806 |
| QSYFPIQ | 0.12 |
| RLGAPIT | 1.39 |
| THSRLCP | 0.852 |
| RCMHASC | 3.12 |
| PNDVVTT | > 22 |
| RKPCLVQ | 3.7 |
| PSGLNQS | > 21 |
| RGNPTCN | > 46 |
| QERYPDV | > 29 |
| LQGGSAA | 1.45 |
| SKTPVKT | 5.07 |
| HPQLQCQ | > 24 |
| NAKVCGS | 1.27 |
| KTELSKS | 5.6 |
| ASPTTLQ | > 63 |
| CFSPLWP | 9.5 |
| YQLNISG | 1.69 |
| QASARLQ | > 38 |
| ASRQGVN | 4.55 |

| Substance | substrate phage enrichment score |
| --- | --- |
| HQNFERA | > 24 |
| VYHGKDP | 10 |
| NGGPSRR | 2.44 |
| RQPPAAN | 2.06 |
| ATGDAYS | 0.389 |
| VGDSKLK | 0.737 |
| CQSDTYG | 2.32 |
| MAKTCAD | 0.1 |
| KPTYTGP | > 30 |
| GNAQSWQ | 5.75 |
| VNDATGK | 3.14 |
| QENGTLR | > 21 |
| AGGQLKA | 7 |
| THLLPQR | > 69 |
| CEQGIWY | 5 |
| PCCVNCV | 5 |
| SRQHSPQ | 2.5 |
| TFAGCGS | 3.17 |
| FSIRADR | 0.643 |
| NDAAHHH | 0.857 |
| CVPGTIS | 4.75 |
| VKAAHHH | 1.94 |
| ERTRLQG | > 29 |
| EMESLSV | > 22 |

| Substance | substrate phage enrichment score |
| --- | --- |
| ALGGKEC | 2.76 |
| PVKERPR | 8.5 |
| LETHGGS | > 64 |
| VEPMMSC | 0.375 |
| ALNFQGG | 3.55 |
| VSRPRPI | 3.5 |
| PCETLRQ | 2 |
| CSTGMVN | 4.64 |
| YPVRTSR | 0.929 |
| HKAAHHH | 0.368 |
| PDCLMCA | 0.915 |
| YENTLRQ | 0.588 |
| ETSNNLR | > 24 |
| HDHHHHG | 0.562 |
| ETCPLPA | 7.5 |
| RRPGVRP | 1.44 |
| TSNFPER | 1.31 |
| LAAAHHH | 0.903 |
| HGCSGLQ | > 57 |
| HILDSVS | 0.63 |
| TSTSHYR | 14.5 |
| RWSRTDV | 1.5 |
| AKLDNMM | > 51 |
| NGGSAAA | 0.917 |

| Substance | substrate phage enrichment score |
| --- | --- |
| EWNAVTH | 12.5 |
| DRAESMS | 0.941 |
| TVFGTAA | 1.65 |
| ARHMTPG | > 42 |
| IKTDAVR | 0.087 |
| TNAAALH | > 25 |
| PHEPINK | 2.5 |
| CALNKFQ | > 33 |
| WRELQSY | 19 |
| SRVPPQT | 3 |
| GLQGPLR | > 28 |
| RCCGHSE | 0.571 |
| TTQEERV | 11 |
| RTADEAH | 12 |
| AVIRRTS | > 43 |
| KCRYLPQ | > 23 |
| SSAAHHH | 1.18 |
| DMREKPA | > 28 |
| CAAAHHH | 0.569 |
| LHSSQET | > 41 |
| VKPVLQS | > 22 |
| FLKYSLE | > 30 |
| VPCPERH | 1.38 |
| TGRAQLH | > 31 |

| Substance | substrate phage enrichment score |
| --- | --- |
| QNNKSRN | > 40 |
| SQTLLYG | 11.3 |
| PRTERHP | > 38 |
| RAAAHQQ | 1.19 |
| ITTEGKR | 63.5 |
| SKAGSIR | 1.75 |
| NAARTWR | > 21 |
| TNTDPGF | 2.83 |
| GNSCVVS | 0.338 |
| PTFSQGR | 0.421 |
| TRHPTML | 1.81 |
| CAAAQHQ | 1.15 |
| PGNASRN | > 35 |
| SETQITD | > 33 |
| NETAHHH | 0.138 |
| FLTECHR | 3.67 |
| TSCGADR | > 52 |
| ANYNKLM | 1.3 |
| EIRTMQA | 1.6 |
| AISKPNR | 1.09 |
| GGTINAR | > 53 |
| KFSKFEG | 1.65 |
| IYNSTLQ | > 26 |
| LRPNCQI | 25 |

| Substance | substrate phage enrichment score |
| --- | --- |
| TTELLTE | > 135 |
| KPVGVSP | 2.4 |
| DLCETVN | > 86 |
| KQQRAWL | 8.4 |
| SQAAHHH | 1.54 |
| WRHIFQG | > 24 |
| TKFGQGD | 4 |
| PAWTFGC | 0.765 |
| ERYFQGG | 2.8 |
| TSVAETG | 12 |
| LKRPSYG | > 21 |
| CRLQSDS | > 93 |
| RSTRTRQ | 10.7 |
| PLVVSPR | 1.8 |
| ITIRNSP | 1.56 |
| SLYFQGG | 1.45 |
| VHNGKSG | 1.65 |
| LTAPHLD | 0.547 |
| KPCWNSG | 1 |
| TYSTTTK | 0.458 |
| ARYGPCP | 0.0488 |
| PVAAHHH | 1.32 |
| STLMSEC | 0.389 |
| PAASSVR | > 26 |

| Substance | substrate phage enrichment score |
| --- | --- |
| RSSPSLK | > 24 |
| YQTSTLQ | > 53 |
| TGVYSQR | > 33 |
| QARHENG | 1.2 |
| TNHHHHH | 14 |
| SRWPFSI | 2.13 |
| KTSGVMT | 1.4 |
| VPGRKPG | > 39 |
| NNTEQFR | > 21 |
| LNRGHYW | 3.62 |
| SNKRTCT | 18 |
| FPNGTQR | > 76 |
| KTTQKGL | > 27 |
| LLNPVDT | 4 |
| VELPVTQ | 1.44 |
| RSATMLQ | > 40 |
| HGCKNSP | > 21 |
| ALHLLPP | > 148 |
| NRLDACF | 10 |
| QATLQGR | > 39 |
| SEAAPCS | > 29 |
| HVFQPPV | 4.6 |
| MCRPNRQ | 1.06 |
| VRNQGQY | > 33 |

| Substance | substrate phage enrichment score |
| --- | --- |
| QQTHVTR | > 49 |
| MDQVSPS | > 80 |
| GVAATPT | > 26 |
| ALQPKTG | 0.118 |
| CAAAQQH | 1.61 |
| RLHTILQ | > 97 |
| DHRNNLN | 0.692 |
| AHYREQC | 1.88 |
| MERKPVG | > 35 |
| VCTGAAK | 4.5 |
| QSGDKEP | 1.17 |
| SPTPKCG | 2.67 |
| FERNSWQ | > 31 |
| KGLHHVR | > 27 |
| PRCPLTW | > 73 |
| KHFQGGS | 0.688 |
| DNQPSLH | 1.75 |
| SRDEPYG | 2 |
| CQAAHHH | 0.114 |
| NHTSLMQ | 9.33 |
| AKMRTGD | 3 |
| RRQNERE | > 28 |
| LIRMVSV | 2.71 |
| SQEKDGT | > 21 |

| Substance | substrate phage enrichment score |
| --- | --- |
| IESITLQ | > 42 |
| TERTNKL | 4.39 |
| APQWCNR | > 30 |
| SNSPPYL | 1.44 |
| RQSFMPD | > 31 |
| ESGQLYG | 1.25 |
| PSSECAM | > 23 |
| DAAAHHH | 0.523 |
| LEHPNRA | > 41 |
| PTHREGS | 34 |
| KSGDGCI | 0.963 |
| NRRPCKW | 1.11 |
| HIQSWRG | > 47 |
| DKWVPTD | 0.149 |
| SWQGGFN | 11 |
| KSGRDLQ | 3.67 |
| HQTKGPG | > 41 |
| ASAPLLQ | > 714 |
| CCRPCAM | 5.2 |
| FSLSAGH | 6.67 |
| RTRVHDW | 2.83 |
| ERSEDLK | 2.43 |
| SAAAQHN | 1.85 |
| PTQFDRP | 1.83 |

| Substance | substrate phage enrichment score |
| --- | --- |
| SRTGAYQ | 6.67 |
| QHTNGGG | > 28 |
| PHLRDHA | 1.14 |
| RQAAHHH | 0.833 |
| SAPSPAQ | 4.75 |
| TYEPTRP | > 26 |
| RAAAQQQ | 2.29 |
| RNQGIWQ | 1 |
| VNDSVTW | > 24 |
| NDGPLNP | 14.3 |
| THSQWPN | 29.7 |
| RQVSSAE | 0.0444 |
| DAHRMGH | 2 |
| VSAVLQA | > 21 |
| SMAAHHH | 0.471 |
| TPNVTNG | 0.08 |
| KHGQSSH | 1.08 |
| IRTMEPE | > 36 |
